A collection of fitness landscapes (doi:10.1126/science.1257360)
The list shows a part of the results.

B1: PhoQ; a variant is named by its letters at X, in order, P23837 (parent)
chain: MKKLLRLFFPLSLRVRFLLATAAVVLVLSLAYGMVALIGYSVSFDKTTFRLLRGESNLFYTLAKWENNKLHVELPENIDKQSPTMTLIYDENGQLLWAQRDVPWLMKMIQPDWLKSNGFHEIEADVNDTSLLLSGDHSIQQQLQEVREDDDDAEMTHSVAVNVYPATSRMPKLTIVVVDTIPVELKSSYMVWSWFIYVLSANLLLVIPLLWVAAWWSLRPIEALAKEVRELEEHNRELLNPATTRELTSLVRNLNRLLKSERERYDKYRTTLTDLTHSLKTPLXXLQXXLRSLRSEKMSVSDAEPVMLEQISRISQQIGYYLHRASMRGGTLLSRELHPVAPLLDNLTSALNKVYQRKGVNISLDISPEISFVGEQNDFVEVMGNVLDNACKYCLEFVEISARQTDEHLYIVVEDDGPGIPLSKREVIFDRGQRVDTLRPGQGVGLAVAREITEQYEGKIVAGESMLGGARMEVIFGRQHSAPKDE

Variants of: B1
Experiment: enrichment ratio after two sorts for PhoP signalling (ratio (wild type AVST 3.29)); higher = more functional
Conditions: with PhoP (E. coli)

| Variant | enrichment ratio |
| --- | --- |
| LHEV | ≤ 0.25 |
| YGFI | ≤ 0.25 |
| LYDV | ≤ 0.25 |
| IDTE | 3.21 |
| VKIV | ≤ 0.25 |
| RNVD | ≤ 0.25 |
| EFPR | ≤ 0.25 |
| MTMW | ≤ 0.25 |
| SMDH | ≤ 0.25 |
| ETQP | ≤ 0.25 |
| MAWT | ≤ 0.25 |
| WGMQ | ≤ 0.25 |
| IKFM | ≤ 0.25 |
| PAYM | ≤ 0.25 |
| FPYG | ≤ 0.25 |
| GLEW | ≤ 0.25 |
| PCPT | ≤ 0.25 |
| APMV | ≤ 0.25 |
| QKHS | ≤ 0.25 |
| DEEL | ≤ 0.25 |
| YEFC | ≤ 0.25 |
| RWCV | ≤ 0.25 |
| WHVG | ≤ 0.25 |
| DRTP | ≤ 0.25 |

| Variant | enrichment ratio |
| --- | --- |
| QFNF | ≤ 0.25 |
| QHCQ | ≤ 0.25 |
| HLWI | ≤ 0.25 |
| EKNF | ≤ 0.25 |
| AEPT | ≤ 0.25 |
| NIVA | ≤ 0.25 |
| FYAT | ≤ 0.25 |
| YKMI | ≤ 0.25 |
| RGGP | ≤ 0.25 |
| WQCG | ≤ 0.25 |
| GTKT | ≤ 0.25 |
| NNRQ | ≤ 0.25 |
| GTVP | ≤ 0.25 |
| YGIT | ≤ 0.25 |
| QQFW | ≤ 0.25 |
| AHVY | 1.23 |
| PDNN | ≤ 0.25 |
| PSTR | ≤ 0.25 |
| ILWR | ≤ 0.25 |
| SKLD | 1.26 |
| PRTN | ≤ 0.25 |
| NWMV | ≤ 0.25 |
| TSDW | ≤ 0.25 |
| HWCS | ≤ 0.25 |

| Variant | enrichment ratio |
| --- | --- |
| ENRL | ≤ 0.25 |
| YWTF | ≤ 0.25 |
| EKSE | ≤ 0.25 |
| REHI | ≤ 0.25 |
| MDCL | ≤ 0.25 |
| HFPN | ≤ 0.25 |
| VAFY | 0.291 |
| PFHG | ≤ 0.25 |
| MGSY | ≤ 0.25 |
| ICYD | ≤ 0.25 |
| PTMP | ≤ 0.25 |
| MCGQ | 7.36 |
| MLMP | ≤ 0.25 |
| KIGE | ≤ 0.25 |
| FMGL | ≤ 0.25 |
| GKNN | ≤ 0.25 |
| LAMI | 5.23 |
| MSRW | ≤ 0.25 |
| FKYM | ≤ 0.25 |
| VGFG | ≤ 0.25 |
| QTHF | 3.14 |
| SLNT | ≤ 0.25 |
| NVML | ≤ 0.25 |
| FQTN | ≤ 0.25 |

| Variant | enrichment ratio |
| --- | --- |
| PNYY | ≤ 0.25 |
| QNYF | ≤ 0.25 |
| SMRL | ≤ 0.25 |
| RKQM | ≤ 0.25 |
| WNRS | ≤ 0.25 |
| KHRV | ≤ 0.25 |
| KDWT | ≤ 0.25 |
| NIWA | ≤ 0.25 |
| VTCA | ≤ 0.25 |
| APGN | ≤ 0.25 |
| HMWP | ≤ 0.25 |
| TGHQ | ≤ 0.25 |
| GFFK | ≤ 0.25 |
| EYSH | ≤ 0.25 |
| DWFV | ≤ 0.25 |
| IVDT | ≤ 0.25 |
| VIYE | ≤ 0.25 |
| VDPP | ≤ 0.25 |
| PTRQ | ≤ 0.25 |
| IEYP | ≤ 0.25 |
| QTMW | ≤ 0.25 |
| TQEA | ≤ 0.25 |
| FVFK | ≤ 0.25 |
| KCAC | ≤ 0.25 |

| Variant | enrichment ratio |
| --- | --- |
| GATA | ≤ 0.25 |
| MAGM | ≤ 0.25 |
| FYYP | ≤ 0.25 |
| QGWM | 9.7 |
| ANQI | ≤ 0.25 |
| LWFY | ≤ 0.25 |
| TRLT | 5.42 |
| KPGF | ≤ 0.25 |
| SRWI | ≤ 0.25 |
| SDMC | 8.47 |
| EHTR | ≤ 0.25 |
| YWKC | ≤ 0.25 |
| PYQT | ≤ 0.25 |
| NKCE | ≤ 0.25 |
| TLDR | ≤ 0.25 |
| VTTL | 3.31 |
| MIPE | ≤ 0.25 |
| DKQC | ≤ 0.25 |
| KFEN | ≤ 0.25 |
| RFMY | ≤ 0.25 |
| QRNA | ≤ 0.25 |
| AYMR | ≤ 0.25 |
| QMWE | ≤ 0.25 |
| MYNY | ≤ 0.25 |

| Variant | enrichment ratio |
| --- | --- |
| GQSV | 1.06 |
| QCPN | ≤ 0.25 |
| NNPM | ≤ 0.25 |
| MMYI | ≤ 0.25 |
| PFTG | ≤ 0.25 |
| TKQY | 6.56 |
| VWSV | ≤ 0.25 |
| FHDM | ≤ 0.25 |
| IEPL | ≤ 0.25 |
| SSRG | ≤ 0.25 |
| PGTM | 1.66 |
| WNYI | 0.483 |
| EGSW | ≤ 0.25 |
| DSQM | ≤ 0.25 |
| YMFY | ≤ 0.25 |
| RNFR | ≤ 0.25 |
| YPKI | ≤ 0.25 |
| KMGM | ≤ 0.25 |
| RKMR | ≤ 0.25 |
| DNLP | ≤ 0.25 |
| ISGN | 1.89 |
| SDCN | 4.78 |
| DPDP | ≤ 0.25 |
| LSKN | ≤ 0.25 |

| Variant | enrichment ratio |
| --- | --- |
| LYHS | ≤ 0.25 |
| LNIC | ≤ 0.25 |
| MDFS | ≤ 0.25 |
| ITAH | ≤ 0.25 |
| RNVI | ≤ 0.25 |
| NSRI | ≤ 0.25 |
| DGRT | ≤ 0.25 |
| KKCN | ≤ 0.25 |
| ADQS | ≤ 0.25 |
| SYNK | ≤ 0.25 |
| VSRC | ≤ 0.25 |
| PTRT | ≤ 0.25 |
| FMCA | ≤ 0.25 |
| EKFH | ≤ 0.25 |
| NDSA | ≤ 0.25 |
| TVWF | ≤ 0.25 |
| NHQE | ≤ 0.25 |
| NHYA | ≤ 0.25 |
| LDCA | ≤ 0.25 |
| KQYN | ≤ 0.25 |
| HMEP | ≤ 0.25 |
| FYVL | ≤ 0.25 |
| NHAT | ≤ 0.25 |
| EEFN | ≤ 0.25 |

| Variant | enrichment ratio |
| --- | --- |
| RWWH | ≤ 0.25 |
| TLYY | ≤ 0.25 |
| STAW | 13.1 |
| IINS | ≤ 0.25 |
| MMRN | ≤ 0.25 |
| GGHM | ≤ 0.25 |
| EDQT | ≤ 0.25 |
| GAIF | ≤ 0.25 |
| NDSN | ≤ 0.25 |
| FRNC | ≤ 0.25 |
| FYHC | ≤ 0.25 |
| LFRC | ≤ 0.25 |
| RFEN | ≤ 0.25 |
| HFLL | ≤ 0.25 |
| PDWN | ≤ 0.25 |
| MPIY | ≤ 0.25 |
| MKVQ | ≤ 0.25 |
| YMWA | ≤ 0.25 |
| FNTA | ≤ 0.25 |
| LWSI | ≤ 0.25 |
| QSWI | 21.7 |
| IFEQ | ≤ 0.25 |
| LITT | ≤ 0.25 |
| EETC | ≤ 0.25 |

| Variant | enrichment ratio |
| --- | --- |
| PPQK | ≤ 0.25 |
| GCDL | ≤ 0.25 |
| AYRR | ≤ 0.25 |
| AYSE | 0.38 |
| QRAW | ≤ 0.25 |
| VHMT | ≤ 0.25 |
| MGGW | ≤ 0.25 |
| FLPN | ≤ 0.25 |
| LNPH | ≤ 0.25 |
| YHCA | ≤ 0.25 |
| MDYQ | ≤ 0.25 |
| PNDD | ≤ 0.25 |
| RWPY | ≤ 0.25 |
| LDGA | ≤ 0.25 |
| IIYF | ≤ 0.25 |
| EAMM | ≤ 0.25 |
| SHGN | ≤ 0.25 |
| LMPA | ≤ 0.25 |
| TLRP | ≤ 0.25 |
| FELG | 5.22 |
| AGFA | ≤ 0.25 |
| TCND | 20.6 |
| MRDV | ≤ 0.25 |
| RHGR | ≤ 0.25 |

| Variant | enrichment ratio |
| --- | --- |
| TFRL | ≤ 0.25 |
| PWCQ | ≤ 0.25 |
| YMCF | ≤ 0.25 |
| SGGC | 10.9 |
| FPKS | ≤ 0.25 |
| EEFY | ≤ 0.25 |
| FVYQ | ≤ 0.25 |
| QNDP | ≤ 0.25 |
| DKSC | ≤ 0.25 |
| DPAL | ≤ 0.25 |
| NPHG | ≤ 0.25 |
| WKGY | ≤ 0.25 |
| QNNA | ≤ 0.25 |
| WCAR | ≤ 0.25 |
| DYIL | ≤ 0.25 |
| GLLC | ≤ 0.25 |
| AFTL | 1.06 |
| QFSV | ≤ 0.25 |
| GDHR | ≤ 0.25 |
| IQPK | ≤ 0.25 |
| FAEW | ≤ 0.25 |
| DAKK | ≤ 0.25 |
| MYDF | ≤ 0.25 |
| TMES | ≤ 0.25 |

| Variant | enrichment ratio |
| --- | --- |
| WYGW | ≤ 0.25 |
| YMGV | ≤ 0.25 |
| IFQM | ≤ 0.25 |
| NWIM | ≤ 0.25 |
| TEMK | 32.5 |
| QPSS | ≤ 0.25 |
| QYCR | ≤ 0.25 |
| IHCE | ≤ 0.25 |
| PDDC | ≤ 0.25 |
| QIME | ≤ 0.25 |
| VYWW | ≤ 0.25 |
| PVWS | ≤ 0.25 |
| EVNY | ≤ 0.25 |
| GITI | 5.68 |
| VMYS | ≤ 0.25 |
| ADQP | ≤ 0.25 |
| VDPK | ≤ 0.25 |
| AYCN | ≤ 0.25 |
| VEYM | ≤ 0.25 |
| RALY | ≤ 0.25 |
| QRNN | ≤ 0.25 |
| PYDK | ≤ 0.25 |
| YYSW | ≤ 0.25 |
| QAIC | ≤ 0.25 |

| Variant | enrichment ratio |
| --- | --- |
| DGQF | ≤ 0.25 |
| YNLF | ≤ 0.25 |
| AQAL | 18.4 |
| FAYD | ≤ 0.25 |
| SVPC | 0.425 |
| SRKG | ≤ 0.25 |
| GSSR | ≤ 0.25 |
| RHCN | ≤ 0.25 |
| RCMQ | ≤ 0.25 |
| HPGE | ≤ 0.25 |
| YSMT | ≤ 0.25 |
| HEGM | ≤ 0.25 |
| MNPQ | ≤ 0.25 |
| FNMP | ≤ 0.25 |
| DPQD | ≤ 0.25 |
| SGVH | 10.5 |
| HYVC | ≤ 0.25 |
| APDI | ≤ 0.25 |
| DQHL | ≤ 0.25 |
| VYWT | ≤ 0.25 |
| ICDW | ≤ 0.25 |
| IWDP | ≤ 0.25 |
| LEHN | ≤ 0.25 |
| TIAI | 11.7 |

| Variant | enrichment ratio |
| --- | --- |
| IAVF | ≤ 0.25 |
| HMNN | ≤ 0.25 |
| WGML | ≤ 0.25 |
| AWGL | ≤ 0.25 |
| PMQT | ≤ 0.25 |
| DKTR | ≤ 0.25 |
| RDHD | ≤ 0.25 |
| KVGG | ≤ 0.25 |
| GMDK | ≤ 0.25 |
| TDFW | ≤ 0.25 |
| HHFM | ≤ 0.25 |
| FFLG | ≤ 0.25 |
| PCHE | ≤ 0.25 |
| NNKM | 6.75 |
| ANVP | ≤ 0.25 |
| EKMN | ≤ 0.25 |
| VAIT | ≤ 0.25 |
| VETK | ≤ 0.25 |
